# Data taken from PubChem BioAssay AID686970 (National Center for Advancing Translational Sciences (NCATS), 2013).
# “And” between values parts separate entries of the source, which are not always exact repeats. Equal values may be shown once. The campaign covered roughly 360,000 compounds. About 6,000 (1.7%) were called active. The inconclusive results got no clear call from the source; some entries with a clear call stand among them for comparison. Calls come from the whole dose curve; as a rule, active = well fitted cell-killing curve with a large enough effect; inconclusive = small, poorly fitted or top-dose-only effect, or effect the other way; inactive = flat fitted curve, though single readings scatter. Where the call is inconclusive, the potency comes from a doubtful curve fit.
# Experiment: qHTS for induction of synthetic lethality in tumor cells producing 2HG: qHTS for the HT-1080-NT fibrosarcoma cell line;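 note: NT is the 2HG producing partner of a matched IDH1 knockdown line; nearly all actives have a fitted effect of over 55% in size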;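 for activity, negative = less viability: 0% = DMSO-treated cells and -100% = media-only wells without cells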
# Settings: HT-1080-NT fibrosarcoma viability, CellTiter-Glo ATP luminescence, 48 h; activity, negative = less viability: at 46.1 µM (top of the series) unless noted
# In short: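 Fibrosarcoma NT cells, 750 per well in 5% FBS RPMI, were exposed to compound for 48 hours. Viability: CellTiter-Glo luminescence.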
# Potency is the fitted concentration of half-maximal effect; tags give direction and shape of the fitted curve.
Structure (SMILES),"activity, negative = less viability",Potency
Cc1ccc(/C=C/C(=O)Nc2sc3c(c2C#N)CCCC3)o1,inactive: -3.62%,
Cc1[nH][nH]c(=O)c1C(c1c(C)[nH][nH]c1=O)c1cn(Cc2cccc3ccccc23)c2ccccc12,,"inconclusive: 29.1 µM [cytotoxic, single point]"
CC(C)(C)c1ccc(-c2cc(C(=O)NNC(=O)Nc3ccccc3)c3ccccc3n2)cc1,,"inconclusive: 29.1 µM [cytotoxic, single point]"
O=S(=O)(Nc1ccc(F)cc1Cl)c1ccc(-c2cnc(C3CC3)o2)cc1,,active: 1.16 µM
O=C(NCc1cccc(Br)c1)C1CC(c2ccccc2C(F)(F)F)=NO1 (centres undefined),,"inconclusive: 25.9 µM [cytotoxic, single point]"
COc1ccc(C)cc1Nc1nc(C)nc2sc(C)cc12,,"inconclusive: 29.1 µM [cytotoxic, single point]"
CCCc1nc2ccc(Cl)cn2c1Cc1ccccc1OC,,"inconclusive: 29.1 µM [cytotoxic, single point]"
O=c1[nH]c(CSc2nc3ccccc3o2)nc2c1cnn2-c1ccccc1,,"inconclusive: 25.9 µM [cytotoxic, single point]"
CCCc1nc2c(C)cc(Br)cn2c1Cc1cccc(F)c1,,"inconclusive: 29.1 µM [cytotoxic, single point]"
CCN(CC)C(=O)C1=C(C)N(Cc2ccc(C(C)(C)C)cc2)C(=O)C(CC(=O)NC2CC2)C1 (centres undefined),inactive: 7.01%,
COc1ccc2cc(-c3[nH]ncc3CN3CCCN(c4ccccc4)CC3)ccc2c1,,"inconclusive: 18.4 µM [cytotoxic, single point]"
O=C(NCc1ccc2c(c1)OCO2)c1ccccc1Cl,inactive: -2.85%,
CCNc1ccccc1CP(=O)(c1ccccc1)c1ccccc1O (centres undefined),inactive: -7.74%,
CCOc1ccc(NC(=O)c2ccc(NC(=O)CSc3nc4ccccc4c(=O)[nH]3)cc2)cc1,inconclusive: -12.7% [cytotoxic],
COc1ccc(NC(=O)C2Cc3c(-c4cccc(NC(C)=O)c4)ccnc3O2)cc1 (centres undefined),,"inconclusive: 1.64 µM [cytotoxic, full curve, poor fit]"
Cc1cc2c(cc1C)-n1nnnc1C(N1CCN(C(=O)OCc3ccccc3)CC1)C(=O)N2 (centres undefined),,"inconclusive: 16.4 µM [cytotoxic, single point]"
CNC(=O)Nc1ccc(Cn2cc(C(F)(F)F)ccc2=O)cc1,,"inconclusive: 7.31 µM [cytotoxic, partial curve]"
COc1ccc(Cl)c(NC(=O)Cn2nnc(-c3ccccc3N)n2)c1,,"inconclusive: 35.5 µM [cytotoxic, single point]"
CC1CC(C)CN(C(=O)c2cccc(S(=O)(=O)N(C)c3ccccc3)c2)C1 (centres undefined),,"inconclusive: 29.1 µM [cytotoxic, single point]"
CC(=O)c1nn(-c2ccccc2)c(=Nc2ccccc2)cc1C,inactive: 12.8%,
COc1ccc(-c2oc(NC(=O)CCl)c(C#N)c2-c2ccc(OC)cc2)cc1,,"inconclusive: 20.6 µM [cytotoxic, single point]"
COc1ccc(S(=O)(=O)N(C)C[C@H]2Oc3ccc(NS(=O)(=O)c4ccc(F)cc4)cc3C(=O)N([C@H](C)CO)C[C@@H]2C)cc1,inactive: 13.8%,

Structure (SMILES),"activity, negative = less viability",Potency
CC(C)CC1C(=O)N(Cc2cn(Cc3ccco3)nn2)CCS(=O)(=O)N1Cc1ccc(-c2ccc(F)cc2)cc1 (centres undefined),,"inconclusive: 29.1 µM [cytotoxic, single point]"
Cc1c(NC(=O)COC(=O)c2cc(-c3ccc(-c4ccccc4)cc3)nc3ccccc23)c(=O)n(-c2ccccc2)n1C,,"inconclusive: 10.3 µM [cytotoxic, partial curve]"
COc1ccc(CCN(C)C(=O)COc2ccc(C(=O)c3ccccc3)cc2)cc1OC,inactive: -7.66%,
Cc1ccc(NS(=O)(=O)c2ccc(NC(=O)CSc3ccc(Cl)cc3)cc2)c(C)c1,,active: 16.4 µM
COc1ccc(C(=O)Nc2ccccc2C(=O)N/N=C/c2ccco2)cc1,,active: 9.2 µM
CCCCNc1c(-c2ccc(OC)c(SC3CCCCC3)c2)nc2ccc(C)cn12,,"inconclusive: 33.2 µM [cytotoxic, single point] and inconclusive: 29.1 µM [cytotoxic, single point]"
O=C1CC(N(CCc2ccccc2)C(=S)Nc2ccccc2)C(=O)N1c1ccc(Br)cc1 (centres undefined),,active: 16.4 µM
CNC(=O)N(O)C1N(/N=C/c2ccccc2OC)C(=S)SC1(C)C (centres undefined),inactive: 2.46%,
CCn1cc(/C=C(\NC(=O)c2ccccc2F)C(=O)N2CCCC2)c2ccccc21,inactive: -0.534%,
CCCC(=O)Nc1ccc(-c2nc3cc(C)c(C)cc3o2)c(O)c1,,"inconclusive: 20.6 µM [rising, partial curve]"
Cc1csc2ncc(C(=O)NC(C)c3ccccc3)c(=O)n12 (centres undefined),inactive: 2.22%,
COc1ccc(-n2c(SCC(=O)Nc3nccs3)nnc2-c2ccccc2)cc1,,"inconclusive: 25.9 µM [cytotoxic, single point]"
CCN(CC)CCCNC(=O)c1cc2c(-c3ccc(Cl)cc3)nn(C)c2s1,,active: 20.6 µM
O=C(CCCn1c(=O)c2sccc2n(Cc2ccc(F)cc2)c1=O)NCc1ccco1,,active: 10 µM
O=C(COc1ccccc1Br)NCCc1nc2ccccc2[nH]1,inactive: 4.29%,
Cc1ccc(S(=O)(=O)c2cc3c(=O)n4ccccc4nc3n(Cc3ccco3)c2=N)cc1,,"inconclusive: 14.1 µM [cytotoxic, single point]"
COc1ccccc1C1CC(c2ccccc2)Nc2ncnn21 (centres undefined),,"inconclusive: 28.2 µM [cytotoxic, single point]"
CCCC(C(=O)OCCN(CC)CC)(c1ccccc1)c1ccccc1,,"inconclusive: 25.9 µM [cytotoxic, partial curve, poor fit]"
CCCS(=O)(=O)NC(=O)C1(C)CCN(C(=O)c2ccc(F)c(C)c2)C1 (centres undefined),,"inconclusive: 20.6 µM [rising, partial curve]"
O=C(/C=C/c1cccc(Br)c1)c1ccc2c(c1)OCO2,,"inconclusive: 29.1 µM [cytotoxic, single point]"
Nc1ncc(Br)cc1S(=O)(=O)Nc1ccccc1F,inactive: -7.96%,
CC(C)Cn1nc(C(=O)OCC(=O)NCC(F)(F)F)c2ccccc2c1=O,inactive: 4.17%,
